From PubChem BioAssay AID540317 (National Center for Advancing Translational Sciences (NCATS), 2011)
About 2,200 (0.56%) of roughly 390,000 compounds were called active. The inconclusive results got no clear call from the source; some entries with a clear call stand among them for comparison. Calls follow the shape of the dose curve; as a rule, active = well fitted inhibition curve with a large enough effect; inconclusive = small, poorly fitted or top-dose-only effect; inactive = no such curve, though single readings can be large or run the other way. Potencies of inconclusive entries are doubtful fits and often do not repeat.

These molecules were tested against Chromobox protein homolog 1 (Homo sapiens) (UniProt P83916) (assay: HTS for Inhibitors of HP1-beta Chromodomain Interactions with Methylated Histone Tails). Conditions: AlphaScreen HP1-beta / biotin-H3K9me3 peptide binding; series mostly up to 114 µM.
Summary of the method: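 HP1-beta protein (50 nM final) preincubated 30 min at room temperature with biotinylated H3(1-18)K9me3 peptide (50 nM) in PBS pH 7.4, 0.01% Tween-20, then compound added for 30 min. AlphaScreen streptavidin donor/nickel chelate acceptor beads (10 ug/mL final), 30 min dark, luminescence read.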
Also: nearly all actives have a fitted effect of over 70% in size.
Potency is read from the fitted curve at half-maximal effect; tags tell the direction and shape of the fitted curve.

Chain of UniProt P83916 (P83916 whole entry, looked up): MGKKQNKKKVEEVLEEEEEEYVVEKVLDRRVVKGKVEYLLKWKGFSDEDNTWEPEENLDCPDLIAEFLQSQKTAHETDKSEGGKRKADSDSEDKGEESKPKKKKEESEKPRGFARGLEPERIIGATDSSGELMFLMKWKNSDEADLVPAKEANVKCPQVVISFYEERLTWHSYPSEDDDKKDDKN

| Structure (SMILES) | Potency |
| --- | --- |
| CCOc1cc(CNc2ccc(OC)cc2)cc(Br)c1OCC(=O)NC(C)(C)C | inconclusive: 35.5 µM [inhibitor, single point] |
| CCOc1ccc(OCC)c(NC(=O)c2cnc(SC)nc2-c2ccccc2)c1 | inactive |
| CCOc1ccc(Cl)cc1S(=O)(=O)N1CCC(C(=O)N2CCCC2)CC1 | inactive |
| Cc1ccc(NC(C(=O)c2ccccc2)c2ccccc2)cc1 (stereo unspecified) | inactive |
| Cc1ccc(C(=O)C(c2ccccc2)N2Cc3ccccc3C2=N)cc1 (stereo unspecified) | inconclusive: 50.1 µM [inhibitor, partial curve] |
| COCCN(C(=O)c1cccc(OC)c1)c1nnc(-c2ccncc2)s1 | inconclusive: 22.4 µM [inhibitor, single point] |
| Cc1ccc(S(=O)(=O)N2CCN(CC3CC4C=CC3C4)CC2)cc1 (stereo unspecified) | active: 28.2 µM |
| COc1ccc(/C=C/c2ccccc2)cc1C1C2C=CCCC2(C)C(=O)N1Cc1ccccc1 (stereo unspecified) | inactive |
| Cc1ccc(CN2CCC(N3CC(C)OC(C)C3)CC2)cc1 (stereo unspecified) | inconclusive: 15.8 µM [inhibitor, full curve] |
| O=C(Nc1sc2c(c1C(=O)NCc1ccccc1)CCCC2)c1cc(=O)c2ccccc2o1 | inconclusive: 25.1 µM [inhibitor, partial curve] |
| CC(=O)[C@@H]1[C@@H](C(=O)c2ccc(F)cc2)[C@]2(C(=O)Nc3ccccc32)[C@H]2C=Cc3cc(F)ccc3N12 | inconclusive: 79.4 µM [inhibitor, partial curve, poor fit] |
| Cc1cccc(C(=O)NC(=S)Nc2ccc(N3CCOCC3)cc2)c1 | inconclusive: 14.1 µM [inhibitor, full curve] |
| O=C(O)CN1C(=O)/C(=C/c2ccc(SCc3ccccc3)o2)SC1=S | inconclusive: 20 µM [inhibitor, full curve] |
| COc1ccc(S(=O)(=O)N2CCN(C3CCCCCCC3)CC2)cc1 | inconclusive: 17.8 µM [inhibitor, full curve, poor fit] |
| N#C/C(=C/c1cn(-c2ccccc2)nc1-c1cccc(OCc2ccccc2)c1)C(=O)NCCCn1ccnc1 | inconclusive: 44.7 µM [inhibitor, partial curve] |
| CCOC(=O)c1c(-c2ccc(C)cc2)csc1NC(=O)c1cc(=O)c2cc(C)cc(C)c2o1 | inconclusive: 14.1 µM [inhibitor, partial curve] |
| O=C(Nc1cccc(C(F)(F)F)c1)c1cccnn1 | inactive |
| CCC1(c2ccccc2)NC(=O)N(CC(=O)NC2CCCCCC2)C1=O (stereo unspecified) | inactive |
| Cc1ccc(NC(=O)Cn2cccc2)cc1C | inactive |
| O=C(c1ccco1)N(Cc1ccc([N+](=O)[O-])cc1)c1ccc(Cl)cc1 | inconclusive: 79.4 µM [inhibitor, single point] |
| COc1ccc(-c2noc(N3CCCC(C(=O)Nc4ccc(C(C)=O)cc4)C3)n2)cc1 (stereo unspecified) | inactive |
| c1ccc(Cn2c(SCCN3CCOCC3)nnc2-c2cccnc2)cc1 | inconclusive: 3.98 µM [inhibitor, full curve, poor fit] |
| O=C(COC(=O)CCc1nc2ccccc2c(=O)[nH]1)Nc1ccc2c(c1)OCO2 | inactive |
| CCOC(=O)c1c(C)[nH]c(C2=NNC(=Nc3ccccc3)SC2)c1C | inconclusive: 10 µM [inhibitor, full curve] |

| Structure (SMILES) | Potency |
| --- | --- |
| NS(=O)(=O)c1ccc(NC(=O)C2Cc3ccccc3CN2C(=O)c2ccco2)cc1 (stereo unspecified) | inconclusive: 50.1 µM [inhibitor, partial curve, poor fit] |
| COc1cccc(C2NC(=O)NC(C)=C2C(=O)OCC2CCCO2)c1 (stereo unspecified) | inconclusive: 89.1 µM [inhibitor, single point] |
| CC(=O)c1cccc(NC(=O)[C@H]2O[C@@H]3OC(C)(C)O[C@@H]3[C@H]3OC(C)(C)O[C@H]32)c1 | inactive |
| Cc1ccc(NS(=O)(=O)c2ccccc2)c(C)c1 | inactive |
| C=C1CCC[C@]2(C)C[C@H]3OC(=O)C(CNCCN(CC)CC)[C@H]3CC12 (stereo partly specified) | inconclusive: 31.6 µM [inhibitor, partial curve] |
| Cc1onc(-c2ccccc2)c1C(=O)N/N=C/c1c[nH]c2ccccc12 | active: 44.7 µM |
| OC(CNCc1ccccc1)Cn1ccc2ccccc21 (stereo unspecified) | inconclusive: 44.7 µM [inhibitor, partial curve, poor fit] |
| Cc1ccc(C)c(-n2c(CNC(=O)c3ccco3)nnc2SCC(=O)N2CCc3ccccc32)c1 | inactive |
| Cc1ccc(S(=O)(=O)N2CCN(C(=O)CNC(=O)c3ccc(Br)o3)CC2)cc1 | inconclusive: 89.1 µM [inhibitor, single point] |
| Cn1c(=S)c2[nH]c(SCC3CCCO3)nc2n(C)c1=O (stereo unspecified) | inconclusive: 89.1 µM [inhibitor, single point] |
| COc1ccc(C(=O)CCC(=O)Nc2ccc(F)cc2F)cc1 | inactive |
| COCCOC(=O)c1ccc(NC(=O)COc2ccc([N+](=O)[O-])cc2)cc1 | inconclusive: 89.1 µM [inhibitor, partial curve, poor fit] |
| CCN(C(=O)CSc1nc2ccc([N+](=O)[O-])cc2s1)c1c(N)n(Cc2ccccc2)c(=O)[nH]c1=O | inactive |
| COc1ccc(C)cc1NCc1ccc([N+](=O)[O-])cc1 | inconclusive: 70.8 µM [inhibitor, partial curve] |
| CC(OC(=O)C1CCC(=O)N1)C(=O)Nc1cc(Cl)cc(Cl)c1 (stereo unspecified) | inconclusive: 39.8 µM [inhibitor, single point] |
| O=C(Nc1cccc(Cl)c1)c1cc(-c2ccc3c(c2)OCO3)on1 | inactive |
| CC(OC(=O)Cc1n[nH]c(=O)c2ccccc12)C(=O)Nc1ccccc1[N+](=O)[O-] (stereo unspecified) | inconclusive: 89.1 µM [inhibitor, single point] |
| COC(=O)c1ccc(C2C(C(=O)c3ccco3)=C(O)C(=O)N2CC2CCCO2)cc1 (stereo unspecified) | inactive |
| COc1cccc(/C=N/n2c(COc3ccccc3)n[nH]c2=S)c1 | inconclusive: 44.7 µM [inhibitor, partial curve] |
| CCCCN(CC)C(=O)CCNS(=O)(=O)c1ccc2c(c1)c(=O)n(C)c(=O)n2C | inactive |
| CC(=O)Oc1ccc(OC(C)=O)c(SCCCCCN2CCOCC2)c1 | inconclusive: 35.5 µM [inhibitor, partial curve, poor fit] |
| CCCNC(=O)C1Cc2cc(S(=O)(=O)N3CCCCCC3)ccc2N1C(C)=O (stereo unspecified) | inactive |
| CCCn1cnc2cc(NCc3ccccc3OCC)ccc21 | inconclusive: 50.1 µM [inhibitor, partial curve, poor fit] |
| COc1ccc(Br)cc1CN1CCN(C(=O)c2ccc(F)cc2)CC1 | inconclusive: 20 µM [inhibitor, full curve] |

| Structure (SMILES) | Potency |
| --- | --- |
| O=C(/C=C/c1ccco1)Nc1nc(-c2ccccn2)cs1 | active: 44.7 µM |
| COCCNC(=O)c1nn(-c2ccc(C)cc2)c(=O)n(C)c1=O | inactive |
| CCN(CC)c1ccc(NC(=O)c2ccccc2OCC(=O)OC)cc1 | inconclusive: 50.1 µM [inhibitor, partial curve, poor fit] |
| COC(=O)c1scc(-c2ccc(C)cc2)c1S(=O)(=O)N1CCN(c2ccc(C)cc2C)CC1 | inconclusive: 89.1 µM [inhibitor, partial curve, poor fit] |
| O=C(OCC(=O)N1CCOCC1)c1cc2ccccc2oc1=O | inactive |
| Cc1csc(NC(=O)Cn2nc(C)c([N+](=O)[O-])c2C)n1 | inactive |
| COC(=O)c1ccc(NC(=O)Cn2c([N+](=O)[O-])cnc2C)cc1 | inactive |
| COC(=O)CCC(=O)OC1(C)C(=O)C2=CN(c3ccc(OC)cc3)C(c3ccc(OC)cc3)=CC2=C(Br)C1=O (stereo unspecified) | inconclusive: 25.1 µM [inhibitor, full curve] |
| COc1ccccc1/C=N/N1CCN(Cc2ccccc2Cl)CC1 | inconclusive: 50.1 µM [inhibitor, partial curve] |
| COc1ccc(-c2noc(CNC(=O)CCN3C(=O)[C@H]4CC=CC[C@H]4C3=O)n2)cc1 | inactive |
| COCCNCCCOc1ccc(C(C)(C)c2ccccc2)cc1 | inconclusive: 15.8 µM [inhibitor, full curve, poor fit] |
| COc1ccc(OC)c(C2C(C(=O)c3cccs3)=C(O)C(=O)N2CCN(C)C)c1 (stereo unspecified) | inactive |
| CN1NC(=O)CC1c1ccccc1 (stereo unspecified) | inconclusive: 79.4 µM [inhibitor, partial curve, poor fit] |
| N#Cc1ncc(Cc2ccccc2)nc1C#N | inactive |
| CCOC(=O)c1c(NC(=O)CSc2nc(-c3ccccc3)cc(C(F)(F)F)n2)sc(C)c1C | inactive |
| O=[N+]([O-])c1nn(-c2ccc3c(c2)OCCO3)n(O)c1=NCc1ccccc1Cl | inconclusive: 44.7 µM [inhibitor, partial curve] |
| CC(=O)N1c2ccc(S(=O)(=O)N3CCCCCC3)cc2CC1C(=O)NCc1ccccc1F (stereo unspecified) | inactive |
| Cc1ccc(N2C(=O)C3C4C=CC(CNC(=S)N5CCN(c6ccccc6)CC5)(O4)C3C2=O)cc1 (stereo unspecified) | inconclusive: 50.1 µM [inhibitor, partial curve] |
| Cc1ccc(CNc2ccc(-c3nc(-c4ccccn4)no3)cc2[N+](=O)[O-])cc1 | inactive |
| c1coc(CSSCc2ccco2)c1 | inconclusive: 50.1 µM [inhibitor, single point] |
| COc1ccc2c(CC(=O)N3CCc4cc(OC)c(OC)cc4C3)coc2c1 | inconclusive: 79.4 µM [inhibitor, partial curve, poor fit] |
| COc1ccc(Cn2ccc3nc(C)c(C(=O)Nc4ccc(OC(F)(F)F)cc4)cc3c2=O)cc1 | inactive |
| O=C(O)c1cc(NCc2cc(O)ccc2O)ccc1O | inconclusive: 10 µM [inhibitor, partial curve, poor fit] |
